The other results are listed elsewhere or left out. Rule as the data show it: active = 3.2 or more and inactive = the rest. The signal is at background level for most entries.
How the values were obtained:
Assay in all cases: enrichment score (SH2-bound / input frequency) (ratio); bacterial display of known human phosphotyrosine sites (pTyr-Var adds point mutants) read by sequencing; higher = stronger binding; tyrosines were phosphorylated by kinases first
Conditions in all cases: peptide library: Human pTyr
SHP2 C-SH2 domain E139D = molecular target: SHP2 C-SH2 domain E139D
[1] = molecular target: SHP2 C-SH2 domain wild-type
SHP2 N-SH2 domain L43F = molecular target: SHP2 N-SH2 domain L43F
SHP2 N-SH2 domain T42A = molecular target: SHP2 N-SH2 domain T42A
SHP2 N-SH2 domain T52S = molecular target: SHP2 N-SH2 domain T52S
[2] = molecular target: SHP2 N-SH2 domain wild-type
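Also: displayed peptides selected on beads carrying the immobilized SH2 domain, with library peptides lacking any tyrosine serving as negative controls.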

Binder | enrichment score (SHP2 C-SH2 domain E139D) | enrichment score [1] | enrichment score (SHP2 N-SH2 domain L43F) | enrichment score (SHP2 N-SH2 domain T42A) | enrichment score (SHP2 N-SH2 domain T52S) | enrichment score [2]
ADFQGFTYVNPDFVH [KPCG_HUMAN_675] | inactive: 0.692 | inactive: 0.652 | inactive: 0.946 | inactive: 1.01 | inactive: 1.15 | inactive: 0.906
KMKDGVVYVYPNEAA [AMPD1_HUMAN_249] | inactive: 0.931 | inactive: 1.2 | inactive: 0.894 | inactive: 0.874 | inactive: 0.895 | inactive: 0.79
KLLEDLVYFVTGGTN [ITPR1_HUMAN_482] | inactive: 1.91 | inactive: 1.52 | inactive: 1.35 | inactive: 1.31 | inactive: 1.53 | inactive: 1.96
VRREVGDYGQLHETE [JAK2_HUMAN_570] | inactive: 1.57 | inactive: 1.1 | inactive: 0.866 | inactive: 0.909 | inactive: 0.846 | inactive: 0.806
FASDPILYRPVAVAL [KPYM_HUMAN_105] | inactive: 0.864 | inactive: 0.742 | inactive: 0.802 | inactive: 0.742 | inactive: 0.804 | inactive: 0.974
EIYDRREYSRFEKEQ [ITGB7_HUMAN_758] | inactive: 0.961 | inactive: 0.866 | inactive: 0.858 | inactive: 0.727 | inactive: 0.781 | inactive: 0.964
TELSWGAYDKASLAS [KCNN2_HUMAN_160_YA] | inactive: 0.559 | inactive: 0.597 | inactive: 0.505 | inactive: 0.596 | inactive: 0.465 | inactive: 0.668
WAAYYSHYYQQPPGP [KHSRP_HUMAN_583] | inactive: 2.09 | inactive: 2.12 | inactive: 2.23 | inactive: 2.17 | inactive: 2.35 | inactive: 2.81
APQIQDLYGKVDFTE [IQGA1_HUMAN_172] | inactive: 0.594 | inactive: 0.851 | inactive: 0.503 | inactive: 0.704 | inactive: 0.786 | inactive: 0.665
TSTIMTDYNPNACFA [ALK_HUMAN_1092_YA] | inactive: 1.11 | inactive: 0.808 | inactive: 0.826 | inactive: 0.983 | inactive: 0.981 | inactive: 0.719
EADSSSDYVNMDFTK [IRS4_HUMAN_921] | inactive: 0.892 | inactive: 0.838 | inactive: 1.11 | inactive: 2.84 | inactive: 1.14 | inactive: 1.04
APQIHDLYGKVKFTA [IQGA3_HUMAN_162] | inactive: 1.33 | inactive: 1.12 | inactive: 0.993 | inactive: 0.842 | inactive: 1.02 | inactive: 1.04
YPTDNEDYEHDDEDD [3BP2_HUMAN_174] | inactive: 1.07 | inactive: 0.973 | inactive: 1.1 | inactive: 1.04 | inactive: 1.03 | inactive: 1.15
DTANNPLYKEATSTF [ITB3_HUMAN_773] | inactive: 0.732 | inactive: 0.6 | inactive: 0.714 | inactive: 0.669 | inactive: 0.705 | inactive: 0.668
ELKGRGEYFAIKALK [KPCD_HUMAN_374] | inactive: 1.33 | inactive: 1.44 | inactive: 1.26 | inactive: 1.29 | inactive: 1.26 | inactive: 1.53
DTSNFDDYEEEDIRV [KAPCB_HUMAN_331] | inactive: 1.19 | inactive: 1.16 | inactive: 1.39 | inactive: 1.25 | inactive: 1.55 | inactive: 1.39
KMKDGVVYVAPNEAA [AMPD1_HUMAN_249_YA] | inactive: 1.24 | inactive: 1.08 | inactive: 0.912 | inactive: 0.859 | inactive: 0.955 | inactive: 1.2
EEINGNNYVAIDPTQ [KIT_HUMAN_568_YA] | inactive: 0.836 | inactive: 0.518 | inactive: 0.726 | inactive: 0.625 | inactive: 0.654 | inactive: 0.627

Binder | enrichment score (SHP2 C-SH2 domain E139D) | enrichment score [1] | enrichment score (SHP2 N-SH2 domain L43F) | enrichment score (SHP2 N-SH2 domain T42A) | enrichment score (SHP2 N-SH2 domain T52S) | enrichment score [2]
GPEPPPVYTNLSSYS [JUNB_HUMAN_182] | inactive: 0.482 | inactive: 0.503 | inactive: 0.639 | inactive: 0.488 | inactive: 0.759 | inactive: 0.486
GSVEMCRYDPLQDNT [JAK2_HUMAN_868] | inactive: 1.12 | inactive: 1.01 | inactive: 0.894 | inactive: 1.04 | inactive: 1.13 | inactive: 1.1
EPKSPGEYVNIEFGS [IRS1_HUMAN_896] | inactive: 0.835 | inactive: 1 | inactive: 2.7 | inactive: 2.21 | inactive: 2.1 | inactive: 0.723
SFDAILAYAQSGGRI [KCNA3_HUMAN_162_YA] | inactive: 1.02 | inactive: 0.777 | inactive: 0.857 | inactive: 0.959 | inactive: 0.87 | inactive: 1.07
GGGGGEFYGYMTMDR [IRS2_HUMAN_540] | inactive: 1.31 | inactive: 1.14 | inactive: 1.21 | inactive: 1.05 | inactive: 1.42 | inactive: 1.52
KGEELPTYEEAKAHS [AMOL2_HUMAN_107] | inactive: 0.931 | inactive: 1.05 | inactive: 0.94 | inactive: 0.868 | inactive: 0.835 | inactive: 0.808
TELSWGAYDKASLYS [KCNN2_HUMAN_160] | inactive: 0.927 | inactive: 0.968 | inactive: 0.788 | inactive: 0.712 | inactive: 0.717 | inactive: 0.561
ERTPYEAYDPIGKYA [KIRR1_HUMAN_724] | inactive: 0.573 | inactive: 0.518 | inactive: 0.684 | inactive: 0.554 | inactive: 0.52 | inactive: 0.639
ERTPAEAYDPIGKAA [KIRR1_HUMAN_724_YA] | inactive: 0.678 | inactive: 0.619 | inactive: 0.791 | inactive: 0.578 | inactive: 0.661 | inactive: 0.629
NAQEKMVYSLVSVPE [ITPR1_HUMAN_353] | inactive: 0.908 | inactive: 1.76 | inactive: 0.775 | inactive: 0.796 | inactive: 0.73 | inactive: 0.89
INFLRQLYEEEIREL [K2C8_HUMAN_228] | inactive: 1.22 | inactive: 0.908 | inactive: 1.23 | inactive: 1.08 | inactive: 1.16 | inactive: 1.26
NNTTNRAYKEIPLSE [KPCD2_HUMAN_438_YA] | inactive: 0.822 | inactive: 0.647 | inactive: 0.746 | inactive: 0.623 | inactive: 0.801 | inactive: 0.634
FTDEYQLYEDIGKGA [KCC2B_HUMAN_17] | inactive: 0.837 | inactive: 0.718 | inactive: 0.733 | inactive: 0.69 | inactive: 0.948 | inactive: 0.7
ETVVIALYDYQTNDP [ITK_HUMAN_180] | inactive: 1.2 | inactive: 1.31 | inactive: 1.27 | inactive: 1.06 | inactive: 1.31 | inactive: 1.47
FVSLIDGYYRLTADA [JAK2_HUMAN_372] | active: 5.68 | active: 9.43 | inactive: 1.71 | active: 4.06 | inactive: 2.04 | inactive: 2.38
MKDPTNGYANVRAHE [KIRR1_HUMAN_605_YA] | inactive: 1.39 | active: 4.21 | inactive: 0.747 | inactive: 0.688 | inactive: 0.658 | inactive: 0.901
TSLWNPTYGSWFTEK [ALK_HUMAN_1507] | inactive: 1.14 | inactive: 0.955 | inactive: 0.945 | inactive: 0.894 | inactive: 1.31 | inactive: 0.974
NSLFTPDYELLTEND [JAK2_HUMAN_813] | inactive: 0.665 | inactive: 0.67 | inactive: 0.684 | inactive: 0.71 | inactive: 0.82 | inactive: 0.876

Source: the supplement of paper PMC10369915
